The whole screen tested about 420,000 compounds, of which about 75 (0.02%) were called active. Inconclusive results, whose numbers are uncertain, are shown with a selection of clear calls. Calls follow the shape of the dose curve; as a rule, active = well fitted activation curve with a large enough effect; inconclusive = small, poorly fitted or top-dose-only effect; inactive = no such curve, though single readings can be large or run the other way. A potency beside an inconclusive call is a rough fit, not a confirmed value.
Test: qHTS for Inducers of the Endoplasmic Reticulum Stress Response (ERSR) in Human Glioma: qHTS; also: nearly all actives have a fitted effect of over 35% in size; as to activation: % of control where 0% means no effect
Conditions: U87-MG GRP78 promoter luciferase reporter, 16 h; activation: active compounds read high
Summary of the method: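 Stably transfected U87-MG glioma cells carrying a GRP78-based luciferase sensor; 16 h compound incubation. Luminescence end-point read 10 min after Bright-Glo addition at room temperature.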
Potency is read from the fitted curve at half-maximal effect; tags tell the direction and shape of the fitted curve.

Row | SMILES | Potency | activation
1 | Cc1cccc(CSc2cccc3cccnc23)c1 | inconclusive: 11.2 µM [activator, full curve, poor fit] | –
2 | COc1ccc(CNC(=O)c2sc(=O)n(Cc3ccccc3OC)c2C)cc1 | – | inactive: -0.303%
3 | CC(=O)Oc1ccc(-c2cccc(C(=O)NCCO)c2)cc1 | – | inactive: -1.24%
4 | Cc1ccc(C)c(NC(=O)Cn2cc(S(=O)(=O)Cc3cccc(Cl)c3)c3ccccc32)c1 | inconclusive: 50.1 µM [activator, single point] | –
5 | O=S(=O)(Nc1ccc(O)c2ccccc12)c1ccc(OC(F)(F)F)cc1 | inconclusive: 28.2 µM [activator, single point] | –
6 | Cc1ccn2c(Nc3ccc(C(C)C)cc3)c(-c3cccnc3)nc2c1 | inconclusive: 50.1 µM [activator, single point] | –
7 | CCc1nc2sc3c(c2c(=O)n1NC(=O)CCl)CCCC3 | inconclusive: 14.1 µM [activator, single point] | –
8 | COc1ccc(NC(=O)c2c(NCc3ccc(OC)c(OC)c3OC)sc3c2CCC3)c(OC)c1 | inconclusive: 50.1 µM [activator, single point] | –
9 | CC(=O)Nc1ccc(Nc2nc3c(S(=O)(=O)c4cc(C)ccc4C)nnn3c3ccsc23)cc1 | – | inactive: 1.52%
10 | COC(=O)c1ccc(Nc2nc(-c3ccccc3Cl)nc3ccccc23)cc1 | inconclusive: 20 µM [activator, single point] | –
11 | CC(=O)OCCN1C(=O)c2c(C)nc3ccc(S(=O)(=O)N4CCOCC4)cc3c2C1=O | inconclusive: 20 µM [activator, single point] | –
12 | Cc1ccc(-n2nnnc2Sc2nc([N+](=O)[O-])nn2C)cc1C | inconclusive: 50.1 µM [activator, single point] | –
13 | Cc1ccc(NC(=O)CSc2nc3ccc(Nc4nc(N5CCOCC5)nc(N5CCOCC5)n4)cc3s2)cc1 | – | inactive: -6.7%
14 | Cc1nc2c(OCc3cccc(Cl)c3)cccn2c1N(C)Cc1cccs1 | inconclusive: 50.1 µM [activator, single point] | –
15 | COc1cc(C)c(C(=O)Oc2cc(C)c(C(=O)O)c(O)c2C)c(OC)c1C | inconclusive: 50.1 µM [activator, single point] | –
16 | O=C(NC1CCN(Cc2ccccc2)C1)c1cnn(-c2ncc3c(n2)-c2ccccc2CC3)c1C1CC1 (centres undefined) | – | inactive: -2.97%
17 | CCCCOc1ccc(C(=O)NCC(=O)OC2CCOC2=O)cc1 (centres undefined) | inconclusive: 44.7 µM [activator, single point] | –
18 | Cc1ccc(NC(=O)c2nc(S(=O)(=O)Cc3ccc(F)cc3)ncc2Cl)cc1C | – | inactive: -10.1%
19 | Cn1nnnc1SC1CC(=O)N(c2ccccc2)C1=O (centres undefined) | – | inactive: -3.02%
20 | Cc1ccccc1Oc1nc2c(C)cccn2c(=O)c1/C=C(\C#N)C(=O)Nc1c(C)n(C)n(-c2ccccc2)c1=O | inconclusive: 44.7 µM [activator, single point] | –
21 | COc1ccc(-c2csc(NC(C)c3nc4cc(Cl)c(Cl)cc4n3CCOCCO)n2)cc1 (centres undefined) | inconclusive: 50.1 µM [activator, single point] | –
22 | CC(C)(C)c1ccc(C(=O)N2CCC(C(=O)NCc3ccco3)CC2)cc1 | inconclusive: 44.7 µM [activator, single point] | –

Row | SMILES | Potency | activation
23 | CS(=O)(=O)Nc1cccc2cccnc12 | inconclusive: 50.1 µM [activator, single point] | –
24 | Cc1occc1C(=O)N/N=C/C=C/c1ccccc1[N+](=O)[O-] | inconclusive: 28.2 µM [activator, partial curve, poor fit] | –
25 | Cc1cc(C(=O)CSc2nnc(-c3ccccc3)n2-c2ccccc2)c(C)n1-c1ncn[nH]1 | inconclusive: 12.6 µM [activator, partial curve, poor fit] | –
26 | N#C/C(=C/c1ccc(N2CCCCCC2)o1)c1cccc(F)c1 | inconclusive: 7.94 µM [activator, partial curve, poor fit] | –
27 | COc1ccccc1N1CCN(S(=O)(=O)c2ccc(F)c(C(=O)Nc3ccc(Cl)cc3C(F)(F)F)c2)CC1 | inconclusive: 14.1 µM [activator, full curve, poor fit] | –
28 | Cc1nc2cc(-c3cccc(F)c3)nn2c(C)c1CCC(=O)NC(C)c1ccccc1 (centres undefined) | – | inactive: -6.96%
29 | Brc1ccc2c(c1)C(c1ccc(N3CCOCC3)cc1)=NNC(c1cccs1)=N2 | active: 31.6 µM | –
30 | COc1cccc(/C=C/c2ccc3cccc(O)c3n2)c1OC | inconclusive: 50.1 µM [activator, single point] | –
31 | COc1ccc(N2CCN(S(=O)(=O)c3c(C(=O)N4CCOCC4)c(C)n(C)c3C)CC2)cc1 | inconclusive: 50.1 µM [activator, single point] | –
32 | O=C(Cc1ccccc1)N/N=C/c1ccc2cccc(O)c2n1 | inconclusive: 44.7 µM [activator, partial curve, poor fit] | –
33 | COc1cccc(/C=C/C(=O)c2ccc3c(c2)OCCO3)c1OC | inconclusive: 50.1 µM [activator, single point] | –
34 | O=C(O)CCc1ccc(-c2ccc(Br)cc2)n1-c1ccccc1O | inconclusive: 50.1 µM [activator, single point] | –
35 | CCOC(=S)SCC(=O)Nc1nc(C)c(C)s1 | inconclusive: 14.1 µM [activator, single point] | –
36 | Nc1nc2c(ncn2C2OC(COC(=O)c3ccccc3)C(OC(=O)c3ccccc3)C2OC(=O)c2ccccc2)c(=O)[nH]1 (centres undefined) | inconclusive: 11.2 µM [activator, full curve, poor fit] | –
37 | CCOC(=S)SCC(=O)Nc1ncc(C)s1 | inconclusive: 44.7 µM [activator, partial curve, poor fit] | –
38 | O=C1c2ccccc2/C(=C\C#Cc2ccccn2)N1c1ccccc1 | inconclusive: 39.8 µM [activator, partial curve, poor fit] | –
39 | N=C1SCC(=O)N1c1ncc(Cc2cccc(Cl)c2)s1 | inconclusive: 50.1 µM [activator, single point] | –
40 | O=C1C2CC=CCC2C(=O)N1c1ncn[nH]1 (centres undefined) | – | inactive: -4.46%
41 | CCC(=O)c1ccccc1OCCCN1CCC(Cc2ccccc2)CC1 | – | inactive: -4.28%
42 | COc1ccc(CCNC(=O)CSc2ncn[nH]2)cc1 | inconclusive: 11.2 µM [activator, single point] | –
43 | Cc1cc(NC(=O)c2ccccc2)no1 | inconclusive: 70.8 µM [activator, single point] | –
44 | Cc1cc2cc3n(c2nn1)N=C(Cl)CC3 | inconclusive: 12.6 µM [activator, partial curve, poor fit] | –

Row | SMILES | Potency | activation
45 | COCCNC(=O)NC1(C(F)(F)F)Oc2ccc(Cl)cc2O1 (centres undefined) | inconclusive: 2.24 µM [activator, partial curve, poor fit] | –
46 | CCN(CC)c1ccc(/C=N/NC(=O)c2nnn(-c3nonc3N)c2CN(C)C2CCCCC2)cc1 | – | inactive: -1.91%
47 | Cn1cnnc1Sc1ccc(C(=O)OCC(=O)NCC(F)(F)F)cc1[N+](=O)[O-] | – | inactive: -1.42%
48 | Oc1ccc(Cl)cc1C1C=C(c2ccc3c(c2)OCO3)NC(c2ccc(Cl)cc2)N1 (centres undefined) | inconclusive: 14.1 µM [activator, single point] | –
49 | Cc1c(-c2ccccc2)n[nH]c1C(=O)N=Nc1c(O)[nH]c2ccccc12 | inconclusive: 63.1 µM [activator, single point] | –
50 | O=c1oc(-c2ccccc2F)nc2scc(-c3ccccc3)c12 | inconclusive: 25.1 µM [activator, single point] | –
51 | C/C(N)=C(/C#N)C(=O)COC(=O)c1cc(C)n(-c2ccc(F)cc2)c1C | inconclusive: 31.6 µM [activator, full curve, poor fit] | –
52 | O=C(Nc1ccc(Nc2ccccc2)cc1)c1ccco1 | inconclusive: 7.94 µM [activator, partial curve, poor fit] | –
53 | CCOC(=O)c1ccccc1NC(=O)Cn1c(-c2nonc2N)nc2ccccc21 | inconclusive: 5.01 µM [activator, single point] | –
54 | Cc1ccc(C(=O)NCCc2nnc3ccc(SCC(=O)N4CCCCC4)nn23)cc1 | – | inactive: -4.66%
55 | CCOc1cc(Br)cc(/C=C2\SC(=Nc3ccccc3)NC2=O)c1O | inconclusive: 12.6 µM [activator, full curve, poor fit] | –
56 | COc1cc(/C=C(\C#N)c2nc3ccc(C)cc3[nH]2)cc([N+](=O)[O-])c1O | inconclusive: 8.91 µM [activator, full curve, poor fit] | –
57 | FC(F)Oc1ccc(-c2csc(NNC3=NCCCCC3)n2)cc1 | inconclusive: 44.7 µM [activator, partial curve, poor fit] | –
58 | CCN(Cc1ccccc1)C(=O)Cn1c(=O)n(Cc2ccccc2)c(=O)c2c1c1cc(OC)ccc1n2C | – | inactive: -3.02%
59 | Cc1cc(OC(=O)c2cc(-c3ccc4c(c3)OCCO4)on2)ccc1Cl | inconclusive: 17.8 µM [activator, single point] | –
60 | COc1cccc(N2CC(=O)N(NC(=O)c3sc4nc(C)cc(C)c4c3N)CC2=O)c1 | – | inactive: -3.66%
61 | O=C(N/N=C/c1ccc(N2CCOCC2)cc1)c1ccc(O)cc1 | – | inactive: 4.2%
62 | COc1cc(CN2CCC(Cc3ccccc3)CC2)c([N+](=O)[O-])cc1OC | – | inactive: -4.02%
63 | CCOC(=O)Cn1c(=O)oc2cc(S(=O)(=O)Nc3cc(Cl)ccc3OC)ccc21 | inconclusive: 44.7 µM [activator, single point] | –
64 | CCN(CC)C(=O)Cn1cc(C(=O)C(=O)Nc2ccc3c(c2)OCO3)c2ccccc21 | inconclusive: 25.1 µM [activator, single point] | –
